Assay results reported in PubChem BioAssay AID1347430 (National Center for Advancing Translational Sciences (NCATS), 2020).
The campaign covered roughly 91,000 compounds. About 130 (0.14%) were called active. The shares of active, inactive and inconclusive entries below differ from those in the screen. The call rests on the fitted dose curve; in most records, active means well fitted inhibition curve with a large enough effect; inconclusive means small, poorly fitted or top-dose-only effect; inactive means flat fitted curve, though single readings scatter. Where the call is inconclusive, the potency comes from a doubtful curve fit.

Test system: Uracil-DNA glycosylase
Test: Primary qHTS assay for inhibitors of Activation Induced Cytidine Deaminase (AID): UDG Counterscreen signal; further: nearly all actives have a fitted effect of over 65% in size
Details: FRET deamination/UDG coupled assay, UDG read, 4 h; activity change, negative = inhibition: at 115 µM (top of the series)
From the text: Assay Provider (PI) Patricia Gearhart Ph.D.
National Institute on Aging
National Institute of Health (NIH), Bethesda, MD
Assay Provider (PI) Rahul Kohli Ph.D.
Perelman School of Medicine
University of Pennsylvania, Philadelphia, PA
Activation-Induced Deaminase (AID) is a cytosine deaminase which converts cytosine into uracil within stretches of ssDNA. The presence of uracil in DNA initiates a cascade of mutagenic DNA repair to introduce point mutations and DNA double strand breaks. Specific targeting of AID to the immunoglobulin heavy chain loci (Igh) promotes mutagenesis in the antibody variable region for somatic hypermutation (SHM) or switch regions leading to class switch recombination (CSR). However, AID also plays a role in accumulating unnecessary mutations across the genome. Mis-targeting of AID results in the initiation of tumor development and leads to greater drug resistance among cancer cells when continually expressed. To identify an AID inhibitor, a small molecule library will be screened in collaboration with NCATS core facility at NIH. To confirm biological function, inhibitors will be examined in an in vitro murine B-cell activation assay and subsequent secondary validation screens. Top molecules will be further screened to identify inhibitory efficacy against a wild type primary splenocytes assay. Using these approaches, we hope to identify a small molecule with great efficacy and low toxicity for use as a molecular probe to further characterize AID's intricacies, or even as a therapeutic.
A FRET based analysis of cytosine deamination, was developed to identify potential inhibitors of AID catalytic activity. This screen has two signal output, Read 1 evaluates the AID inhibition response. The second readout (Read 2) evaluates UDG response and is uses as a counterscreen to exclude false positive inhibitors. Inhibition in AID and inactivity in the UDG signal is the desired outcome for this assay.
SEQUENCE No. (e.g., 1, 2, 3, etc.); […] (e.g., Cells, Incubation, Reagent, etc.); VALUE; DESCRIPTION
1a; Reagent; 3 uL; [4/3x] 1 uM AID/2.67 U/mL UDG
1b; Reagent; 3 uL; 2 U/mL UDG
1c; Reagent; 3 uL; 1 uM AID
2a; Compound; 46 nL; Follow-up plates (0.64 uM - 10 mM)
2b; Control; 46 nL; ATA ([…] - 10 mM)
3; Time; 10 min; incubation at room temperature
5; Time; 4 hr; incubation at room temperature
6; Reagent; 4 uL; [2x] 250 mM NaOH
7; Time; 15 sec; centrifuge at 1000 rpm
8; Time; 30 min; incubation at room temperature
9a; Detection; fluorescence (Read 1: AID); EnVision (PerkinElmer) plate reader, 540 excitation and 590 emission filters
9b; Detection; fluorescence (Read 2: UDG); EnVision (PerkinElmer) plate reader, 560 excitation and 665 emission filters
NOTES (numbers refer to sequence above)
1a; Reagents were dispensed in a medium-binding black solid-bottom Greiner plates (789176F) using a BioRptr liquid dispenser. Dispense 3 uL of [4/3x] 1 uM AID (provided by Kohli lab) and [4/3x] 2 U/mL UDG (NEB M0280L) into columns 1, 2, 5 to 48.
1b; Dispense 3 uL of [4/3x] 2 U/mL UDG into column 3.
1c; Dispense 3 uL of [4/3x] 1 uM AID into column 4.
2a; Compound (7-points [uM] (0.64; 3.2; 16; 80; 400; 2,000; 10,000; 20,000) double pin-transferred (Dip Factor = 2) using the Kalypsys (Wako USA) pintool equipped with a 1536 pinhead for a final concentration range of 7.32 nM - 114 uM.
2b; 10 mM Aurintricarboxylic Acid (Sigma A1895) (ATA, 8-point, n = 2, 1:2.5 dilution in column 2) double pin-transferred (Dip Factor = 2) using the Kalypsys (Wako USA) pintool equipped with a 1536 pinhead for a [final] range of 186 nM - 114 uM.
3; Room temperature incubation.
4; Dispense 1 uL of substrate mixture from the Kohli lab [4x] […] DJC20 and [4x] 250 nM DJC23 into columns 1 to 48 .
5; Room temperature incubation.
6; Dispense 4 uL of substrate mixture [2x] 250 mM NaOH into columns 1 to 48.
7; Centrifugation step to remove bubbles.
8; Room temperature incubation
9a; Fluorescence signal (column label AID) was read using the EnVision plate reader. […]
On the % scale 0 is the no-effect control and ±100 the full control effect; potency means the concentration at half of the fitted maximal effect; tags describe the fitted curve by direction and shape.

Structure (SMILES) | Potency | activity change, negative = inhibition
CSc1cccc(Nc2nc(N)c(C(=O)c3ccc(F)cc3)s2)c1 | inconclusive: 79.4 µM [inhibitor, partial curve, poor fit] | –
Cc1ccc(-n2c(SCc3nc(-c4ccc(Cl)cc4)no3)nnc2-c2ccncc2)cc1 | inconclusive: 50.1 µM [inhibitor, partial curve, poor fit] | –
CCOc1ccc(N(CC(=O)Nc2ccc3c(c2)OCO3)S(=O)(=O)c2ccccc2)cc1 | inconclusive: 79.4 µM [inhibitor, single point] | –
COc1ccc(N(Cc2cccs2)C(=O)COc2ccc([N+](=O)[O-])cc2)cc1 | inconclusive: 79.4 µM [inhibitor, partial curve] | –
CCN(Cc1ccccc1)C(=O)c1cc2ccc3cccnc3c2[nH]1 | inconclusive: 89.1 µM [inhibitor, single point] | –
CCS(=O)(=O)N1CC(=O)N(c2cccc(C)c2C)C(C)(C(=O)NC2CCCCCC2)C1 (stereo not given) | inconclusive: 100 µM [inhibitor, single point] | –
O=C(Nc1ccc(Br)cc1F)c1ccc2nc(CCc3ccccc3)oc2c1 | inconclusive: 89.1 µM [inhibitor, single point] | –
Cc1ccc(N(C)S(=O)(=O)c2ccc(-c3cnc(C4CC4)o3)cc2)cc1 | inconclusive: 79.4 µM [inhibitor, partial curve, poor fit] | –
Clc1ccccc1CNc1nc2ccccc2c2nc(-c3ccccc3)nn12 | inconclusive: 89.1 µM [inhibitor, single point] | –
O=C(Nc1ccc(SC2CCCC2)cc1)c1cccs1 | – | inactive: -17%
CCn1cc(C(=O)NC2CCN(C3CC3)CC2)c2ccccc21 | – | inactive: -7.86%
N#CCc1nc(-c2ccc3c(c2)OCCO3)cs1 | inconclusive: 56.2 µM [inhibitor, partial curve, poor fit] | –
COc1ccc(C(=O)Nc2cc3cc(Cl)ccc3oc2=O)cc1OC | – | inactive: 1.33%
CCN(CC)C(=O)c1sc2c(c1C)c(=O)n(-c1ccc(OC)cc1OC)c(=O)n2Cc1cc(C)ccc1C | inconclusive: 89.1 µM [inhibitor, partial curve, poor fit] | –
COc1cccc(-c2nn(C)c3sc(C(=O)NCc4ccc(C)cc4)cc23)c1 | active: 89.1 µM | –
CCN(CCCNC(=O)CSc1cc(=O)n(C)c2cc(Cl)ccc12)c1ccccc1 | inconclusive: 89.1 µM [inhibitor, single point] | –
CCOc1ccc(NC(=O)CC2Nc3cccc4cccc(c34)NC2=O)cc1 (stereo not given) | inconclusive: 79.4 µM [inhibitor, partial curve, poor fit] | –
CCOC(=O)c1ccc(NC(=O)C2=C(C)C(=O)OC23CCCCCC3)cc1 | inconclusive: 89.1 µM [inhibitor, single point] | –
CC(C)Sc1ncc(Cl)c(C(=O)Nc2nc3ccc(S(C)(=O)=O)cc3s2)n1 | inconclusive: 100 µM [inhibitor, single point] | –
Nc1nccnc1C(=O)NCCc1ccccc1F | – | inactive: -0.765%
CCOc1ccccc1-c1noc(CSc2nnc(-c3ccncc3)n2-c2ccc(F)cc2)n1 | inconclusive: 79.4 µM [inhibitor, partial curve, poor fit] | –
Cc1nnc2sc(-c3cccc(NC(=O)C(C)(C)C)c3)nn12 | – | inactive: -13.9%

Structure (SMILES) | Potency | activity change, negative = inhibition
O=C(c1cc(-c2cccs2)nc2ccccc12)N1CCOCC1 | inconclusive: 89.1 µM [inhibitor, single point] | –
Cc1ccc2cc(CCl)c(Cl)nc2c1C | – | inactive: -2.4%
CN(c1ccccc1)C(CNS(=O)(=O)c1ccccc1)c1ccccc1 (stereo not given) | inconclusive: 89.1 µM [inhibitor, single point] | –
CNC(=O)c1nn(CN2CCN(Cc3cc(C)ccc3OC)CC2)c(=O)c2ccccc12 | – | inactive: -0.622%
CCCOc1ccc(-c2nn(-c3ccccc3)cc2C2NC(=O)NC(C)=C2C(=O)OCC)cc1 (stereo not given) | active: 89.1 µM | –
O=C(Nc1ccc(Cl)c(C(F)(F)F)c1)c1cccc(I)c1 | inconclusive: 25.1 µM [inhibitor, partial curve, poor fit] | –
COc1ccc(NC(=O)CSc2nc(-c3ccc(OC)cc3)cc(=O)[nH]2)cc1 | inconclusive: 89.1 µM [inhibitor, partial curve] | –
COc1cc(C(=O)Nc2ccc(-c3cc(C(F)(F)F)nn3-c3ccccc3)cc2)cc(OC)c1OC | inconclusive: 22.4 µM [inhibitor, partial curve, poor fit] | –
Cc1ccccc1NC(=O)CSc1nc2ccc(NC(=O)COc3ccccc3F)cc2s1 | inconclusive: 100 µM [inhibitor, single point] | –
COc1ccc(NC(=O)COc2ccc(F)cc2)c2cccnc12 | – | inactive: 4.14%
CCn1cc2nc(SCc3cccc(OC)c3)n(Cc3ccc(Cl)cc3)c(=O)c2n1 | inconclusive: 39.8 µM [inhibitor, partial curve, poor fit] | –
O=S(=O)(NCc1ccccc1)c1ccc2[nH]c3c(c2c1)CCCCC3 | – | inactive: -5.77%
CC(C)/C=N/Nc1ccc(S(N)(=O)=O)cc1[N+](=O)[O-] | – | inactive: -8.73%
COc1cccc(CNC(=O)Cn2c(=O)oc3cc(S(=O)(=O)N4CCC(C)CC4)ccc32)c1 | inconclusive: 89.1 µM [inhibitor, single point] | –
CC(C)(C)C(C)(O)C#CCN1CCCC1 (stereo not given) | – | inactive: -8.34%
Cc1cc(C)cc(OCC(=O)N2CCC(NC(=O)c3ccccc3)CC2)c1 | – | inactive: -2.37%
Cc1ccc(NC(=O)c2c(C)oc3ncn(CC(C)C)c(=O)c23)nc1 | inconclusive: 100 µM [inhibitor, partial curve, poor fit] | –
Cc1ccc(C2=CC(c3ccc(F)cc3)n3nnnc3N2)cc1 (stereo not given) | inconclusive: 79.4 µM [inhibitor, single point] | –
O=C1CC(=O)Nc2cc(S(=O)(=O)Nc3ccc(F)cc3Cl)ccc2N1 | inconclusive: 89.1 µM [inhibitor, single point] | –
CCCc1ccc(OC(C)c2nc(-c3ccc(-n4cccc4)cc3)no2)cc1 (stereo not given) | inconclusive: 56.2 µM [inhibitor, partial curve, poor fit] | –
Cc1cccc(NC(=O)c2c(NC(=O)c3ccco3)sc3c2CCC(C)C3)c1 (stereo not given) | inconclusive: 79.4 µM [inhibitor, partial curve, poor fit] | –
CC(C(=O)Nc1ccccc1)n1nnc2sc3c(c2c1=O)CCCC3 (stereo not given) | inconclusive: 56.2 µM [inhibitor, partial curve, poor fit] | –

Structure (SMILES) | Potency | activity change, negative = inhibition
Cc1cn2c(=O)c(S(=O)(=O)NCc3ccc(F)cc3)c(C)nc2s1 | inconclusive: 100 µM [inhibitor, single point] | –
CCc1ccc2occ(CC(=O)Nc3ccc(C)c(C)c3)c2c1 | inconclusive: 79.4 µM [inhibitor, partial curve, poor fit] | –
Cc1ccc(C(=O)N2CCN(c3oc(-c4cccs4)nc3C#N)CC2)cc1 | inconclusive: 89.1 µM [inhibitor, single point] | –
O=C(/C=C/Nc1ccc(Cl)c(C(F)(F)F)c1)c1ccc(Cl)cc1 | inconclusive: 35.5 µM [inhibitor, full curve, poor fit] | –
Cc1cc(C)c(NC(=O)CCc2c[nH]c3ccccc23)c(C)c1 | – | inactive: 3.16%
COc1ccc(S(=O)(=O)N(CCc2ccccc2)CC(=O)Nc2cc(C)cc(C)c2)cc1OC | inconclusive: 89.1 µM [inhibitor, single point] | –
COc1ccc(NC(=O)CC2C(=O)N(c3ccc(C)cc3)C(=O)N2Cc2ccc3c(c2)OCO3)cc1 (stereo not given) | inconclusive: 89.1 µM [inhibitor, single point] | –
CCOC(=O)c1ccc(/C=C/c2ccccn2)cc1 | – | inactive: -4.47%
O=C(CCn1nnc2ccccc21)OCC(=O)c1ccccc1 | inconclusive: 89.1 µM [inhibitor, single point] | –
Cc1cnc2c(S(=O)(=O)NCCC3CCCO3)cccc2c1 (stereo not given) | – | inactive: -1.31%
Cc1ccc(-c2csc(Nc3ccc(S(=O)(=O)Nc4nc(C)cc(C)n4)cc3)n2)cc1 | inconclusive: 89.1 µM [inhibitor, single point] | –
COc1cccc(CN(C(=O)c2oc3ccc(Br)cc3c2C)C2CCS(=O)(=O)C2)c1 (stereo not given) | inconclusive: 89.1 µM [inhibitor, partial curve, poor fit] | –
FC(F)(F)c1cccc(-n2nnnc2C2(N3CCOCC3)CCCC2)c1 | active: 89.1 µM | –
Cc1ccc(-c2cc(N)n(Cc3cccc(Cl)c3)n2)cc1 | inconclusive: 89.1 µM [inhibitor, single point] | –
COc1ccc(C2Nc3ccccc3-n3c(-c4ccccc4)c4c(=O)n(C)c(=O)n(C)c4c32)cc1 (stereo not given) | inconclusive: 89.1 µM [inhibitor, single point] | –
COc1ccc(N2Cc3cccc(C(=O)Nc4ccc(C)cc4)c3C2=O)cc1 | inconclusive: 31.6 µM [inhibitor, partial curve, poor fit] | –
COc1ccc(-c2cn3nc(N4CCC(C(=O)NCc5cccc(Cl)c5)CC4)sc3n2)cc1 | inconclusive: 89.1 µM [inhibitor, single point] | –
CC(=O)N1CCc2c(sc3c2c(=O)n(Cc2ccccc2)c(=O)n3Cc2cccc(Cl)c2)C1 | inconclusive: 10 µM [inhibitor, full curve, poor fit] | –
Cc1ccc(-n2nc(C(=O)NCc3ccc(F)cc3Cl)c3c4ccccc4n(C)c3c2=O)cc1 | inconclusive: 89.1 µM [inhibitor, partial curve, poor fit] | –
O=C1c2c(O)ccc(O)c2C(=O)c2c(NCCNCCO)ccc(NCCNCCO)c21 | active: 39.8 µM | –
Fc1ccccc1N1CCN(c2ncnc3c2nc2n3CCCCC2)CC1 | – | inactive: 0.812%
